This is one part of the list.
What follows are molecules tested on T1, C. trachomatis L2/434/Bu expressing GFP (CTL2-GFP). Settings: total inclusion area; 28.5 h, 10 µM; inhibitor.
T1 construct: L2/434/Bu GFP intracellular growth in HeLa cells
Design: species or system HeLa; C. trachomatis total inclusion area by high-content imaging, normalised to DMSO
In short: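 Imaging read-out: GFP inclusions and Hoechst nuclei captured by high-content imaging after fixation. Inclusion area/number = chlamydial growth; nuclei count = host cell viability. MIC calculated per earlier method.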
With `Cc1cccc(Nc2nccc(-n3ccc(C)n3)n2)c1` [CBK288616] the “% of control remaining” value was 80.1638.
For `COc1ccc(-c2cc3cccn(CC(=O)N(C)C)c-3n2)cc1` [CBK285382], the “% of control remaining” value was 74.6847.
`CC(C)C(NC(=O)CN1CSCC1=O)c1ccc(C(C)(C)C)cc1` (centres unmarked) [CBK297899] was tested, and the “% of control remaining” value was 85.1004.
`COc1cc(CN2CCN(C(=O)c3cccnc3)CC2)cc(OC)c1O` [CBK265210G] was tested, and the “% of control remaining” value was 74.7532.
`CN1CCN(c2nccnc2-c2cccnc2)CC1` [CBK036612] was tested, and the “% of control remaining” value was 109.24.
For `O=C1CC(N2CCN(C3CC(=O)N(Cc4ccccc4)C3=O)CC2)C(=O)N1Cc1ccccc1` (centres unmarked) [CBK269198], the “% of control remaining” value was 113.687.
In the case of `O=C(O)C(=C/C=C/Br)C(=O)O` [CBK260906], the “% of control remaining” value is reported as 100.902.
For `NC(=O)[C@H]1C[C@@H](O)[C@H](O)[C@H]2[C@@H]1S/C(=N\c1ccc(Cl)cc1)N2Cc1ccccc1` [CBK288940], the “% of control remaining” value was 65.2287.
For `O=C(CN1C(=O)N2CCN=C2c2ccccc21)NC1CCCC1` [CBK283959], the “% of control remaining” value was 65.3184.
With `Cc1ccc(C2CCCN2C(=O)C(C)Cn2cncn2)cc1C` (centres unmarked) [CBK282213] the “% of control remaining” value was 86.2176.
For `CCOC(=O)CSc1nc2ccc(I)cc2c(=O)n1Cc1ccccc1` [CBK266602], the “% of control remaining” value was 105.775.
In the case of `O=C(c1cccnc1)C1CCN(C(=O)Cc2cccc(F)c2)CC1` [CBK283506], the “% of control remaining” value is reported as 92.2508.
In the case of `c1ccc2sc(-c3cc(Nc4ccc5[nH]ccc5c4)ncn3)cc2c1` [CBK090858], the “% of control remaining” value is reported as 133.959.
For `COc1ccc(-c2cc(C(=O)N/N=C/c3c(C)[nH]c4ccccc34)[nH]n2)cc1` [CBK262884], the “% of control remaining” value was 6.288.
With `COCCn1c(SCC(=O)N2CCCc3ccccc32)nc(O)cc1=O` [CBK304191] the “% of control remaining” value was 38.7753.
In the case of `Cc1cccc(-n2nc3c4nonc4ccc3[n+]2[O-])c1C` [CBK264626], the “% of control remaining” value is reported as 115.422.
In the case of `O=C(c1c(NS(=O)(=O)c2ccc3ccccc3c2)sc2c1CCCC2)N1CCOCC1` [CBK028636], the “% of control remaining” value is reported as 82.9161.
`Cc1n[nH]c(O)c1C(c1ccc(OC(=O)c2ccccc2)cc1)c1c(C)n[nH]c1O` [CBK265019] was tested, and the “% of control remaining” value was 102.3.
`COc1cccc(CC(=O)NCc2ccccc2OC2CCNC2)c1` (centres unmarked) [CBK024487T] was tested, and the “% of control remaining” value was 98.2605.
In the case of `O=c1sn(-c2ccccc2C(F)(F)F)c(=O)n1CC1CC1` [CBK113675], the “% of control remaining” value is reported as 99.7402.
For `COc1ccc([N+](=O)[O-])cc1NC(=O)N[C@@H]1CC[C@@]2(c3ccc(OC)c(OC)c3)CCN(C)[C@H]2C1` [CBK036449T], the “% of control remaining” value was 82.4642.
`OCc1ccc(-n2ncc(-c3ccc(F)cc3F)n2)cc1` [CBK112731] was tested, and the “% of control remaining” value was 97.3092.
In the case of `Cc1nn(C)c(S(=O)(=O)N2CCOCC2c2cccc(F)c2)c1C(F)F` (centres unmarked) [CBK304729], the “% of control remaining” value is reported as 86.0273.
`CC(Oc1ccc(Cl)cc1Cl)C(=O)N1CCN(Cc2ccc3c(c2)OCO3)CC1` (centres unmarked) [CBK074438] was tested, and the “% of control remaining” value was 97.8144.
`Cc1nn(C)c2ncc(S(=O)(=O)Nc3ccc(F)cn3)cc12` [CBK305175] was tested, and the “% of control remaining” value was 89.6429.
With `O=C(CCCOc1ccccc1)Nc1cccnc1N1CCNCC1` [CBK028258T] the “% of control remaining” value was 87.7237.
`Cc1nn(C)c(Oc2ccc3c(c2)CCCC3)c1[N+](=O)[O-]` [CBK000273] was tested, and the “% of control remaining” value was 77.3866.
`CN(C)S(=O)(=O)c1ccc(C(=O)Nc2ccc3ncn(C)c(=O)c3c2)cc1` [CBK268450] was tested, and the “% of control remaining” value was 86.2031.
With `COc1ccc(-c2noc(CN(C)C(=O)c3cccs3)n2)cc1` [CBK270286] the “% of control remaining” value was 85.3949.
With `O=C(Cn1cnc(NCc2cscn2)n1)N1CCCCCC1` [CBK304061] the “% of control remaining” value was 29.0097.
In the case of `O=C(C[C@@H]1O[C@H](CNS(=O)(=O)c2ccc(Cl)cc2)[C@@H](O)[C@H]1O)N1CCCC1` [CBK288911], the “% of control remaining” value is reported as 61.3934.
`O=C(CC1CCCCO1)Nc1cccc(Cn2ccnc2)c1` (centres unmarked) [CBK282204] was tested, and the “% of control remaining” value was 87.8494.
With `COc1cc(OC)cc(C(=O)Nc2cccc(-c3nc4ccccc4o3)c2)c1` [CBK097706] the “% of control remaining” value was 113.328.
In the case of `Cn1c(=O)oc2cc(Br)ccc21` [CBK027375], the “% of control remaining” value is reported as 64.2779.
With `O=C(c1ccco1)N1CCN(S(=O)(=O)c2ccc3c(c2)C(=NO)c2cc(S(=O)(=O)N4CCN(C(=O)c5ccco5)CC4)ccc2-3)CC1` [CBK262103] the “% of control remaining” value was 101.117.
For `Cc1[nH]c(=O)[nH]c(=S)c1C(=O)Nc1ccc(C(F)(F)F)cc1` [CBK115510], the “% of control remaining” value was 94.0873.
For `CCn1nc2c3ccccc3nc(C3CC3)n2c1=O` [CBK284008], the “% of control remaining” value was 69.8138.
`O=C(Nc1ccc(Br)cc1)C1CC(O)CN1C(=O)OCc1ccccc1` (centres unmarked) [CBK263233] was tested, and the “% of control remaining” value was 90.4427.
For `OCC1CCCN1c1cncc(-c2cccnc2)n1` (centres unmarked) [CBK065439], the “% of control remaining” value was 118.129.
With `O=C1NC2=C(C(=O)N(CC3CCCO3)C2)C(c2ccc(F)c(F)c2)N1` (centres unmarked) [CBK282271] the “% of control remaining” value was 98.4977.
For `COc1cccc(-c2nc(CC(=O)N3CCC(C(=O)O)CC3)cs2)c1` [CBK286797], the “% of control remaining” value was 96.4594.
In the case of `CC(=O)c1cc2c(cc1NC(=O)CSc1ccccn1)OCO2` [CBK266225], the “% of control remaining” value is reported as 114.61.
For `O=C(CN1CCOCC1)Nc1ccc(S(=O)(=O)N2CCCC2)cc1` [CBK268468], the “% of control remaining” value was 103.017.
For `Cc1ccc(CN(CC(=O)N2CCC(C(N)=O)CC2)S(=O)(=O)c2ccc(Br)cc2)cc1` [CBK265813], the “% of control remaining” value was 126.415.
In the case of `O=C(Nc1ccccc1-c1nc2ccccc2[nH]1)c1ccc(S(=O)(=O)N2CCCC2)cc1` [CBK263252], the “% of control remaining” value is reported as 61.0239.
For `Cc1ccccc1-c1cncc(C2CCN(C(=O)CCOc3ccccc3)CC2)n1` [CBK286154], the “% of control remaining” value was 112.813.
For `CCOC(=O)c1ccc(S(=O)(=O)N2CCCCC2)cc1` [CBK069738], the “% of control remaining” value was 89.421.
With `c1coc(-c2ccc(Nc3ccc4c(c3)OCCO4)nc2)c1` [CBK037765] the “% of control remaining” value was 97.0811.
For `N#CCCN(CCc1ccccc1)S(=O)(=O)c1cccc2nsnc12` [CBK261138], the “% of control remaining” value was 98.9153.
`Cc1cc(NC(=O)COc2ccccc2)nc2c1c(=O)oc1ccccc12` [CBK287436] was tested, and the “% of control remaining” value was 95.7869.

Source: paper PMC12040169 (PLOS Biology, 2025)
